# From publication PMC9911399, “Two distinct binding modes provide the RNA-binding protein RbFox with extraordinary sequence specificity”
# Residue numbers refer to the chain shown, from its start. Some of the results follow.
# T1: RBFOX1 RRM (Homo sapiens, UniProt Q9NWB1 109-208)
# T1 sequence: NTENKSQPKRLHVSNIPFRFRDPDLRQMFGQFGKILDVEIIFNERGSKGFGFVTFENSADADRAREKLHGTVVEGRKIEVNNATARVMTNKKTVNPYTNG
# B1: GCGUGAG (DNA:RNA)
# RNA: GGGAGACCGGAAUUCAGAUUGUCCGCGUGAGUUAAAUCCCGUCGUAGCCACCA
# DNA 1: CAATCTGAATTCCGGTCTCCC
# DNA 2: TGGTGGCTACGACGGGATT
# B2: UCGCAGU (DNA:RNA)
# RNA: B1 RNA with G25U, U28C, G29A, A30G, G31U
# DNA 1: CAATCTGAATTCCGGTCTCCC
# DNA 2: TGGTGGCTACGACGGGATT
# B3: GAAUUCG (DNA:RNA)
# RNA: B1 RNA with C26A, G27A, G29U, A30C
# DNA 1: CAATCTGAATTCCGGTCTCCC
# DNA 2: TGGTGGCTACGACGGGATT
# B4: CAAUGUG (DNA:RNA)
# RNA: B1 RNA with G25C, C26A, G27A, A30U
# DNA 1: CAATCTGAATTCCGGTCTCCC
# DNA 2: TGGTGGCTACGACGGGATT
# B5: CGGUGAG (DNA:RNA)
# RNA: B1 RNA with G25C, C26G
# DNA 1: CAATCTGAATTCCGGTCTCCC
# DNA 2: TGGTGGCTACGACGGGATT
# B6: AACCGCA (DNA:RNA)
# RNA: B1 RNA with G25A, C26A, G27C, U28C, A30C, G31A
# DNA 1: CAATCTGAATTCCGGTCTCCC
# DNA 2: TGGTGGCTACGACGGGATT
# B7: UUUUCGC (DNA:RNA)
# RNA: B1 RNA with G25U, C26U, G27U, G29C, A30G, G31C
# DNA 1: CAATCTGAATTCCGGTCTCCC
# DNA 2: TGGTGGCTACGACGGGATT
# B8: UAGUUGG (DNA:RNA)
# RNA: B1 RNA with G25U, C26A, G29U, A30G
# DNA 1: CAATCTGAATTCCGGTCTCCC
# DNA 2: TGGTGGCTACGACGGGATT
# B9: CGUAAAA (DNA:RNA)
# RNA: B1 RNA with G25C, C26G, G27U, U28A, G29A, G31A
# DNA 1: CAATCTGAATTCCGGTCTCCC
# DNA 2: TGGTGGCTACGACGGGATT
# B10: CGGGUAG (DNA:RNA)
# RNA: B1 RNA with G25C, C26G, U28G, G29U
# DNA 1: CAATCTGAATTCCGGTCTCCC
# DNA 2: TGGTGGCTACGACGGGATT
# B11: GCAUCUG (DNA:RNA)
# RNA: B1 RNA with G27A, G29C, A30U
# DNA 1: CAATCTGAATTCCGGTCTCCC
# DNA 2: TGGTGGCTACGACGGGATT
# B12: CUAUCAG (DNA:RNA)
# RNA: B1 RNA with G25C, C26U, G27A, G29C
# DNA 1: CAATCTGAATTCCGGTCTCCC
# DNA 2: TGGTGGCTACGACGGGATT
# B13: CCUCAAG (DNA:RNA)
# RNA: B1 RNA with G25C, G27U, U28C, G29A
# DNA 1: CAATCTGAATTCCGGTCTCCC
# DNA 2: TGGTGGCTACGACGGGATT
# B14: UACUAAC (DNA:RNA)
# RNA: B1 RNA with G25U, C26A, G27C, G29A, G31C
# DNA 1: CAATCTGAATTCCGGTCTCCC
# DNA 2: TGGTGGCTACGACGGGATT
# B15: GAUUCAG (DNA:RNA)
# RNA: B1 RNA with C26A, G27U, G29C
# DNA 1: CAATCTGAATTCCGGTCTCCC
# DNA 2: TGGTGGCTACGACGGGATT
# B16: AUGCUAG (DNA:RNA)
# RNA: B1 RNA with G25A, C26U, U28C, G29U
# DNA 1: CAATCTGAATTCCGGTCTCCC
# DNA 2: TGGTGGCTACGACGGGATT
# B17: CAGCAUG (DNA:RNA)
# RNA: B1 RNA with G25C, C26A, U28C, G29A, A30U
# DNA 1: CAATCTGAATTCCGGTCTCCC
# DNA 2: TGGTGGCTACGACGGGATT
# B18: GGCUCGA (DNA:RNA)
# RNA: B1 RNA with C26G, G27C, G29C, A30G, G31A
# DNA 1: CAATCTGAATTCCGGTCTCCC
# DNA 2: TGGTGGCTACGACGGGATT
# B19: UUGAGUG (DNA:RNA)
# RNA: B1 RNA with G25U, C26U, U28A, A30U
# DNA 1: CAATCTGAATTCCGGTCTCCC
# DNA 2: TGGTGGCTACGACGGGATT
# B20: UUAUCAC (DNA:RNA)
# RNA: B1 RNA with G25U, C26U, G27A, G29C, G31C
# DNA 1: CAATCTGAATTCCGGTCTCCC
# DNA 2: TGGTGGCTACGACGGGATT
# Biological target: T1, RBFOX1 RRM
# Test: EMSA; HiTS-Eq, 1 nM pool, 10 min; buffer printed only for the single-RNA assays: 10 mM Tris pH 7.5, 150 mM NaCl, 3.4 mM EDTA, 0.001% NP-40, 30 C
# Conditions: tags: His6 N-terminal (pET28a); label: 5' 32P
# How it was run: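 Purified wild-type or mutant RbFox RRM at increasing concentrations was equilibrated with 1 nM of 5′-radiolabelled RNA carrying 7 randomized nucleotides for 10 min in 50 µL. Unbound RNA was separated by 8% native PAGE and sequenced. Relative association constants came from read-count changes of each RNA species compared with the control reaction, normalised to the cognate motif.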
row,Binder,binding signal
1,B1,0.00976 KA relative to UGCAUGU
2,B2,0.0131 KA relative to UGCAUGU
3,B3,0.00956 KA relative to UGCAUGU
4,B4,0.00985 KA relative to UGCAUGU
5,B5,0.0102 KA relative to UGCAUGU
6,B6,0.00535 KA relative to UGCAUGU
7,B7,0.0207 KA relative to UGCAUGU
8,B8,0.0164 KA relative to UGCAUGU
9,B9,0.000358 KA relative to UGCAUGU
10,B10,0.022 KA relative to UGCAUGU
11,B11,0.0193 KA relative to UGCAUGU
12,B12,0.0125 KA relative to UGCAUGU
13,B13,0.00422 KA relative to UGCAUGU
14,B14,0.0013 KA relative to UGCAUGU
15,B15,0.016 KA relative to UGCAUGU
16,B16,0.0132 KA relative to UGCAUGU
17,B17,0.665 KA relative to UGCAUGU
18,B18,0.033 KA relative to UGCAUGU
19,B19,0.0333 KA relative to UGCAUGU
20,B20,0.00249 KA relative to UGCAUGU
